From PubChem BioAssay AID504845 (National Center for Advancing Translational Sciences (NCATS), 2011)
Values joined by “and” are separate entries in the source; they are usually repeats but may differ in a detail not shown here. Identical values can stand only once. Among all 390,000 compounds or so, about 150 (0.038%) were called active. Roughly 3% stayed inconclusive and do not appear here. Calls come from the whole dose curve; as a rule, active = well fitted inhibition curve with a large enough effect; inconclusive = small, poorly fitted or top-dose-only effect; inactive = no such curve, though single readings can be large or run the other way. Only a part is listed here, and it is no random draw. Where a structure was tested more than once in an assay, its records may differ in their call.

target: Regulator of G-protein signaling 4 (Homo sapiens) (UniProt P49798); experiment: Inhibitors of Regulator of G Protein Signaling (RGS) 4: qHTS; conditions: Transcreener GDP fluorescence polarization, RGS4-accelerated GTP hydrolysis; series mostly up to 114 µM; activity change, negative = inhibition: at the top concentration; note: nearly all actives have a fitted effect of over 75% in size
Method in brief: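 MLSMR compounds (23 nl, pin-transferred) preincubated 10 min at room temperature with a 500nM (2x) first reagent, then RGS4 at 900nM (2x) plus Transcreener GDP mix added; fluorescence polarization (620/688 nm) read before and after 90 min at 30 °C.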
% is set by controls: 0 for no effect and ±100 for the full control effect; potency is the fitted concentration of half-maximal effect.

Chain of UniProt P49798 (P49798 whole entry, looked up): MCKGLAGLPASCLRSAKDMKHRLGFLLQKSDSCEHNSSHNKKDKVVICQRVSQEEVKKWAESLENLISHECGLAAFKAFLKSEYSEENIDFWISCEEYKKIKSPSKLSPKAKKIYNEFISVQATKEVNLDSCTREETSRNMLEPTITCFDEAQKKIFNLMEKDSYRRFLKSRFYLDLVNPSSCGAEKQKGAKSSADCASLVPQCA

Structure (SMILES) | activity change, negative = inhibition | Potency
CCCN(CC(=O)Nc1ccccc1C)C(=O)c1cn2ccccc2n1 | inactive: 78.5% | –
CCCCN(CC)C(=O)c1cc2c(=O)n3cccc(C)c3nc2s1 | inactive: -7.01% | –
CCCCC1C(=O)N(c2ccccc2)N(c2ccccc2)C1=O | inactive: -19.3% | –
Nc1ncnc2c1nc(Br)n2[C@@H]1O[C@@H]2COP(=O)(O)O[C@H]2[C@H]1O | inactive: 15.6% | –
O=C(O)Cc1ccc(O)c(O)c1 | inactive: 2.61% | –
O=C(NCc1ccccc1)c1nc(S(=O)(=O)Cc2ccccc2)ncc1Cl | inactive: -15.5% | –
O=C(NCCN1C(=O)S/C(=C/c2cccnc2)C1=O)C1=NN(c2ccccc2)C(=O)CC1 | inactive: -37.7% | –
C[C@H](Cc1ccccc1)Nc1ncnc2c1ncn2[C@@H]1O[C@H](CO)[C@@H](O)[C@H]1O | inactive: 0% | –
CC(=O)Nc1nc2c(s1)C(=O)NCCC2 | inactive: 54.3% | –
CN(C)CCC(c1ccccc1)c1ccccn1 (centres undefined) | – | inactive
CC(=O)OC(C)C[N+](C)(C)C (centres undefined) | – | inactive
O=C(O)c1ncc(-c2ccccc2)cn1 | inactive: 54.3% | –
CCN1/C(=C/C(C)=O)Sc2ccc(OC)cc21 | – | inactive
C[C@H]1c2cccc(O)c2C(O)=C2C(=O)[C@]3(O)C(O)=C(C(N)=O)C(=O)[C@@H](N(C)C)[C@@H]3[C@@H](O)[C@@H]21 | inactive: -4.52% | –
COc1cc(CC(=O)O)ccc1O | inactive: 19.3% | –
O=c1[nH]c2cc(Cl)ccc2c(O)c1-c1ccc(Oc2ccccc2)cc1 | inactive: 12.8% [at 56.9 µM] | –
CCNC(=O)C(C)Sc1ccc(Cl)cc1 (centres undefined) | inactive: 58.7% | –
Clc1ccccc1C(c1ccccc1)(c1ccccc1)n1ccnc1 | inactive: -4.7% | –
CN(C)CCOC(c1ccccc1)c1ccccc1 (tested in a mixture with another compound) | inactive: -1.48% | –
Cc1cc(/C([O-])=C(/C(=S)Nc2ccc(F)cc2)[n+]2ccccc2)c(C)n1-c1ccc(F)cc1 | inactive: -40.9% | –
Nc1cc(N2CCCCC2)nc(N)[n+]1OS(=O)(=O)[O-] | inactive: -50% [at 56.9 µM] | –
O=C1S/C(=C\c2ccc(N3CCOCC3)o2)C(=O)N1Cc1ccc(F)cc1 | inactive: -94.1% | –
N[C@@H](CSS(=O)(=O)O)C(=O)O | – | inactive
CC(C)(Oc1ccc(C2CC2(Cl)Cl)cc1)C(=O)O (centres undefined) | – | inactive
S=c1nc[nH]c2nc[nH]c12 | inactive: -38.3% | –
CNC1(C)C2CCC(C2)C1(C)C (centres undefined) | inactive: 5.56% [at 56.9 µM] | –
OCc1ccc(-c2nn(Cc3ccccc3)c3ccccc23)o1 | – | inactive and active: 23.8 µM

Structure (SMILES) | activity change, negative = inhibition | Potency
CO/N=C(\C(=O)N[C@@H]1C(=O)N2C(C(=O)O)=C(COC(C)=O)CS[C@H]12)c1csc(N)n1 (stereo in doubt) | – | inactive
NNC(=O)Cn1c(SCc2ccccc2)nc2ccccc21 | – | inactive
CC(C)CC(=O)NC1(C(F)(F)F)NC(=O)N(c2ccccc2)C1=O (centres undefined) | inactive: 58.9% | –
COC(=O)c1c(C)nsc1NC(=O)Oc1ccccc1 | inactive: 93.9% | –
COc1ccc(C(=O)N/C(=C/c2ccc(Cl)cc2)C(=O)NCc2ccncc2)cc1 | inactive: 74.9% | –
COc1ccc(CCN2C(=O)C3C4CC(C5C(C(=O)NN)=NOC45)C3C2=O)cc1OC (centres undefined) | inactive: 59.2% | –
CCN1CCC[C@H]1CNC(=O)c1cc(S(N)(=O)=O)ccc1OC | – | inactive
Cc1cc(C)c2nc(SCCc3ccccc3)nc(C)c2c1 | inactive: 73.5% | –
COc1ccc(CCCOC(Cn2ccnc2)c2ccc(OC)cc2)cc1 (centres undefined) | inactive: 360% [at 56.9 µM] | –
O=C(O)c1cc(-c2ccco2)nc2ccc(Br)cc12 | inactive: -7.8% | –
Cn1cc(C(=O)NS(=O)(=O)Nc2ccc(Br)cn2)c2ccccc21 | inactive: 82.6% | –
O=C1c2ccccc2-c2n[nH]c3cccc1c23 | inactive: -11.1% | –
C/C=C1\COC(C(=O)NCCCN2CCCC2=O)(C(F)(F)F)C=C1C=C(C)C (centres undefined) | inactive: -1.03% | –
CC(CN1c2ccccc2Sc2ccccc21)N(C)C (centres undefined) | inactive: 0.087% | –
CCOC(=O)C1=C(C)NC(C)=C(C(=O)OC)C1c1cccc([N+](=O)[O-])c1 (centres undefined) | – | inactive
N[C@@H](C(=O)O)c1ccc(O)c(C(=O)O)c1 | – | inactive
CCOC(=O)C1=C(CN2CCN(C(=O)c3ccco3)CC2)NC(=O)NC1c1ccc(C)cc1 (centres undefined) | inactive: 65.7% | –
COc1ccccc1N1CCN(CCN2C(=O)CC3(CCCC3)CC2=O)CC1 | – | inactive
CN1Cc2sccc2C(c2ccc(O)c(O)c2)C1 (centres undefined) | inactive: 32.6% [at 56.9 µM] | –
COc1ccccc1CNCCCCCCNCCCCCCCCNCCCCCCNCc1ccccc1OC | inactive: -7.55% [at 56.9 µM] | –
CC(NC(=O)CNC(=O)[C@@H]1Cc2ccccc2CN1)c1ccccc1 (some centres undefined) | inactive: 55.3% | –
C#C[C@]1(O)CC[C@H]2[C@H]3CCC4=Cc5oncc5C[C@]4(C)[C@@H]3CC[C@]21C | inactive: 19.5% [at 56.9 µM] | –
CC(C)(C)NCC(O)c1ccc(O)c(CO)c1 (centres undefined) | – | inactive
[N-]=[N+]=Nc1ccc(C(=O)CSC[C@H](NC(=O)CC[C@H](N)C(=O)O)C(=O)NCC(=O)O)cc1 | – | active: 3.36 µM
COc1ccc(-c2nn(-c3ccccc3)cc2/C=C(/C#N)C(N)=O)cc1[N+](=O)[O-] | inactive: -31.1% | –
CC(=O)O[C@H]1Cc2ccccc2N(C(N)=O)c2ccccc21 | inactive: 19.6% [at 56.9 µM] | –
O=C(O)c1ccccc1Nc1cccc(OCc2ccc3ccccc3n2)c1 | inactive: 4.09% | –
